Data reported in PubChem BioAssay AID2147 (National Center for Advancing Translational Sciences (NCATS), 2009).
Several values for one entry are separate records, joined by “and”; a condition that tells them apart may be missing. Identical values can stand only once. The whole screen tested about 230,000 compounds, of which about 3,600 (1.6%) were called active. Inconclusive results, whose numbers are uncertain, are shown with a selection of clear calls. Calls come from the whole dose curve; as a rule, active = well fitted inhibition curve with a large enough effect (not every such curve was filed as active); inconclusive = small, poorly fitted or top-dose-only effect, or another doubt; inactive = no such curve, though single readings can be large or run the other way. A potency beside an inconclusive call is a rough fit, not a confirmed value.

Molecular target: Lysine-specific demethylase 4E (Homo sapiens) (UniProt B2RXH2)
Assay: qHTS Assay for Inhibitors of Human Jumonji Domain Containing 2E (JMJD2E)
Settings: JMJD2E catalytic domain, FDH-coupled NADH fluorescence (FDH is formaldehyde dehydrogenase); series mostly up to 57.1 µM
Note: nearly all actives have a fitted effect of over 50% in size.
Potency is the fitted concentration of half-maximal effect; tags give direction and shape of the fitted curve.

Chain of UniProt B2RXH2 (B2RXH2 whole entry, looked up, the tested form may be a part): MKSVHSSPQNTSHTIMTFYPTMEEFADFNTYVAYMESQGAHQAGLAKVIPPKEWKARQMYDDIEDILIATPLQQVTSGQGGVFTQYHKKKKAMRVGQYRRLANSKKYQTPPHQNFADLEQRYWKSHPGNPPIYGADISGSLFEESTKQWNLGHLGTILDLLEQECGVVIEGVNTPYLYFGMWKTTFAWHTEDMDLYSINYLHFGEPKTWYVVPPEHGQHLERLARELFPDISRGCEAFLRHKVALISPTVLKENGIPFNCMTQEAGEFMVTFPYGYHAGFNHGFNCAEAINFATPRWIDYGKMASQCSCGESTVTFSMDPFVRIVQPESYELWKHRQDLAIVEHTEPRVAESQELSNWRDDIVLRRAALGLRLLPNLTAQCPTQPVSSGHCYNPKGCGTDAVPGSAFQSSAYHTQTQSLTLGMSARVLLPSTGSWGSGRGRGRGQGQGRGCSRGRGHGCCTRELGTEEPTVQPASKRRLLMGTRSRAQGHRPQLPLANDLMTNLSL

Structure (SMILES) | Potency
CCCCc1nc2ccccc2c(NC(=O)CN2CCCC2)c1CCC | inconclusive: 28.2 µM [inhibitor, single point]
COc1cc(OC)c2c(C)cc(=O)oc2c1C(CCN1CCOCC1)c1ccc(N(C)C)cc1 (stereo not given) | inconclusive: 39.8 µM [inhibitor, single point]
COc1ccc(S(=O)(=O)N2CCC(c3cc(-c4cccc5ccccc45)n[nH]3)CC2)cc1 | inconclusive: 25.1 µM [inhibitor, partial curve]
O=C(/C=C/c1ccc(O)cc1)c1ccc(NC2=C(N3CCCCC3)C(=O)c3ccccc3C2=O)cc1 | active: 17.8 µM
COc1ccc2cc3cc(C(=O)NC(C)C)oc3nc2c1 | inconclusive: 31.6 µM [inhibitor, partial curve]
CCOc1cc(S(=O)(=O)Nc2ccccn2)ccc1F | inconclusive: 25.1 µM [inhibitor, partial curve]
COC(=O)Cc1[nH]nc2c1C(c1c[nH]c3ccccc13)C(C#N)=C(N)O2 (stereo not given) | inconclusive: 28.2 µM [inhibitor, single point]
CCCCn1nc2cc(C(=O)NCc3ccc(OC(F)(F)F)cc3)ccc2c1OC | inconclusive: 35.5 µM [inhibitor, partial curve]
Cc1ccc(NC(=O)c2c(NC(=O)CCC(=O)O)sc3c2CCCCC3)cc1 | inconclusive: 28.2 µM [inhibitor, single point]
C#CCOCCOCCOCCNc1nc(N2CCN(C(=O)[C@H]([C@@H](C)CC)n3cc(CCCN=C(N)N)nn3)CC2)nc(N2CCN(C(=O)[C@H](C)n3cc(CCCN=C(N)N)nn3)CC2)n1 | inconclusive: 39.8 µM [inhibitor, single point]
Cn1c(CS/C(N)=N/N=C/c2ccccc2)c(Br)c(=O)n1-c1ccccc1 | inactive
Cc1cc(N2CCN(c3ccccc3)CC2)nc(-c2ccccc2O)n1 | inconclusive: 35.5 µM [inhibitor, partial curve]
O=C(C(Cc1ccccc1)n1cccc1)N1CCCCC1 (stereo not given) | inactive
Cc1ccc(C)c(-n2c(-c3cccnc3)n[nH]c2=S)c1 | inactive
CCNC(=O)Nc1cc(OC)c(OC)cc1C(=O)O | inconclusive: 31.6 µM [inhibitor, partial curve]
O=C(CNC1CCCCCC1)Nc1ccccc1N1CCOCC1 | inconclusive: 39.8 µM [inhibitor, single point]
Cc1ccc(S(=O)(=O)c2cc3c(=O)n4cccc(C)c4nc3n(CC3CCCO3)c2=N)cc1 (stereo not given) | inconclusive: 2.24 µM [inhibitor, full curve]
CC1=CC2=NCC(O)CN2C=C1 (stereo not given) | inconclusive: 28.2 µM [inhibitor, partial curve]
Nn1c(Cc2cccc3ccccc23)nnc1SCn1nnc2ccccc2c1=O | inactive
COc1ccc(-c2c([C@H]3[C@H]4C=CC[C@@H](C)[C@@H]4C(=O)N3Cc3ccccc3)ccc3ccccc23)cc1 | inconclusive: 25.1 µM [inhibitor, single point]
C/C(=N\NC(=O)CCCNc1ccc(C)cc1)c1ccccn1 | inconclusive: 35.5 µM [inhibitor, single point]
CCCCCn1c(N)c(-c2nc3ccccc3o2)c2c([N+](=O)[O-])nn(CC)c(=O)c21 | inactive
CCC(C)NCCOCCOc1ccccc1-c1ccccc1 (stereo not given) | inconclusive: 31.6 µM [inhibitor, single point]
CCN(CC)CCCN1C=C2C(=O)C(C)(OC(=O)C3CCCC3)C(=O)C=C2C=C1c1ccsc1 (stereo not given) | inconclusive: 25.1 µM [inhibitor, partial curve] and inconclusive: 3.55 µM [inhibitor, partial curve]

Structure (SMILES) | Potency
Cc1cccc(S(=O)(=O)Nc2cccc3c2C(=O)c2ccccc2-3)c1 | inactive
CCCCN1Cc2cc(C(=O)c3cc(F)ccc3O)cnc2NC1=O | inconclusive: 39.8 µM [inhibitor, single point]
O=C(Nc1cccc(C(F)(F)F)c1)c1cccnc1 | inactive
CCN(CC)S(=O)(=O)c1ccc(-c2nnc3sc4cccc(C)c4n23)cc1 | inconclusive: 28.2 µM [inhibitor, single point]
Cc1ccc(CNC(=O)c2cn(C3CCCCC3)c(=O)c3c2c2ccccc2n3C)o1 | inconclusive: 28.2 µM [inhibitor, partial curve]
COC(=O)c1c(NC(C)=O)sc(C(=O)Nc2ccccc2)c1C | inconclusive: 31.6 µM [inhibitor, single point]
CC[N+](C)(C)CCN(Cc1ccc(Cl)cc1)c1ccccn1 | inconclusive: 31.6 µM [inhibitor, partial curve]
Cc1ccn2cc(-c3cnoc3C)nc2c1 | inconclusive: 31.6 µM [inhibitor, partial curve]
CC(=O)Nc1nc2c(c3c1c(=O)oc1ccccc13)CCCC2 | inconclusive: 28.2 µM [inhibitor, single point]
Nc1nc(-c2cccnc2)nc2sc3c(c12)CCCC3 | inconclusive: 28.2 µM [inhibitor, partial curve]
CCn1c(C)cc(/C=C2\SC(=O)N(CC(=O)Nc3ccc(C)c(C)c3)C2=O)c1C | inactive
N#C/C(=C\c1ccc(Cl)cc1)c1nc2ccccc2o1 | inconclusive: 31.6 µM [inhibitor, partial curve]
O=C(NCc1ccc2c(c1)OCO2)c1ccc(C2SCC(=O)N2Cc2ccco2)cc1 (stereo not given) | inactive
Cc1coc2cc3oc(=O)c4c(c3cc12)CCCC4 | inconclusive: 31.6 µM [inhibitor, partial curve]
Cc1ccc(CN2C(=O)C3CCCN3c3ccc(C#N)cc32)cc1 (stereo not given) | inconclusive: 22.4 µM [inhibitor, partial curve]
COc1ccc(-c2coc3ccc(OC4OC(COC(C)=O)C(OC(C)=O)C(OC(C)=O)C4OC(C)=O)cc3c2=O)cc1 (stereo not given) | inactive
COc1cccc(CN2C(=O)c3cccc(N)c3C2=O)c1 | inconclusive: 35.5 µM [inhibitor, single point]
Cc1ccc(NC(=O)c2ccn(C(=O)Nc3ccccc3)n2)c(C)c1 | inactive
CCN(CC)c1ccc(C(=O)NN)cc1 | inactive
CC(=O)C1=C(O)C(=O)N(c2ccc(C(=O)O)cc2)C1c1ccccc1 (stereo not given) | inconclusive: 31.6 µM [inhibitor, single point]
CN1CCN(CC(=O)Nc2nc(-c3c[nH]c4ccccc34)cs2)CC1 | inactive
CCOC(=O)C1CCN(C(=O)Nc2ccc3nc(C)c(C)nc3c2)CC1 | inconclusive: 28.2 µM [inhibitor, partial curve]
CCCn1nc2cc(C(=O)NCc3ccc(OC)cc3)ccc2c1OCC | inconclusive: 31.6 µM [inhibitor, partial curve]
CCOc1ccc2[nH]c(=O)c(CN(Cc3ccccc3OC)C(=O)c3ccccc3)cc2c1 | inconclusive: 28.2 µM [inhibitor, single point]

Structure (SMILES) | Potency
Cc1ccc(C(c2nnnn2C(C)(C)C)N2CCC(C)CC2)cc1 (stereo not given) | inactive
COc1cc2c(CCNC(C)=O)c[nH]c2cc1O | inconclusive: 35.5 µM [inhibitor, single point]
CCOC(=O)c1[nH]cnc1C(=O)Nc1ccncc1 | inactive
Nc1cccn2c(-c3ccc(Cl)c(Cl)c3)cnc12 | active: 20 µM
COc1ccc(O)c(C(=O)c2cnc3nc4ccccc4n3c2)c1 | inconclusive: 28.2 µM [inhibitor, single point]
CS(=O)(=O)N(CC(=O)NCc1ccco1)c1cccc([N+](=O)[O-])c1 | inactive
O=c1oc2ccccc2c2c1SC(C(F)(F)F)C2 (stereo not given) | inconclusive: 31.6 µM [inhibitor, partial curve]
FC(F)(F)c1cc(-c2ccc(Cl)cc2)nc2ncnn12 | inconclusive: 31.6 µM [inhibitor, partial curve]
O=C(CN1CCN(c2ccc(F)cc2)CC1)Nc1ccccc1[N+](=O)[O-] | inactive
CC(C)N=c1scc(-c2cccs2)n1/N=C/c1ccc(O)c(O)c1O | active: 28.2 µM
CN(C)C(=O)c1ccc(NC(=O)c2ccccc2Sc2ccccc2C#N)cc1 | inactive
COc1ccccc1/C=C/C1(C(=O)NC2CCCC2)CC(=O)N1c1ccccc1 (stereo not given) | inconclusive: 39.8 µM [inhibitor, single point]
COc1ccc(CCC(=O)NCc2cn3ccccc3n2)cc1 | inconclusive: 31.6 µM [inhibitor, partial curve]
Nc1cc(N)nc(SCCOc2ccccc2F)n1 | inconclusive: 8.91 µM [inhibitor, single point]
O=C(COC(=O)Cc1ccccc1F)Nc1cc(S(=O)(=O)N2CCOCC2)ccc1N1CCCC1 | inactive
CC(C)n1ncc2c(C(=O)O)cc(C3CC3)nc21 | inconclusive: 25.1 µM [inhibitor, partial curve]
COc1cccc(C(=O)N(c2ccccc2)C2C=CS(=O)(=O)C2)c1 (stereo not given) | inactive
O=C(CSc1nc(Cc2ccccc2)nc2ccccc12)c1ccc2c(c1)OCCO2 | inconclusive: 35.5 µM [inhibitor, single point]
Cc1c2c(nc3ccccc13)CCC(C)C2 (stereo not given) | inconclusive: 39.8 µM [inhibitor, single point]
Nc1ccc(-c2ccc(N)c([N+](=O)[O-])c2)cc1[N+](=O)[O-] | inactive
N#Cc1c(C(F)(F)F)cc(-c2ccc(F)cc2)nc1SCC(=O)O | inconclusive: 35.5 µM [inhibitor, single point]
CCCCn1c(=O)c(CCC(=O)OCC(=O)NC(C)c2ccccc2)nc2ccccc21 (stereo not given) | inconclusive: 25.1 µM [inhibitor, partial curve]
